The experiment deals with coxsackievirus B3 97927 (CVB3 97927; I1207, I1092). Put plainly: microbe, parasite or virus in culture. Format: cell-based. Particulars: read-out: IC50 against CVB3 97927 I1207, I1092.

Like-named read-outs stand apart in the source and are kept apart here.

Consider `Cc1cc(-c2noc(C(F)(F)F)n2)ccc1OCCCc1cc(C(=O)N(C)C)no1` [Compound 8, N,N-dimethyl-5-(3-{2-methyl-4-[5-(trifluoromethyl)-1,2,4-oxadiazol-3-yl]phenoxy}propyl)isoxazole-3-carboxamide], for which the IC50 (in general, the concentration that inhibits the measured activity by half) (Enterovirus B, HeLa, 48 h) was 1 nM.
The same measure, in the same setting: the figure for `CN(C)C(=O)c1cc(CCCOc2ccc(-c3noc(C(F)(F)F)n3)cc2F)on1` [Compound 9, 5-(3-{2-fluoro-4-[5-(trifluoromethyl)-1,2,4-oxadiazol-3-yl]phenoxy}propyl)-N,N-dimethylisoxazole-3-carboxamide] is 19 nM.
As to `CN(C)C(=O)c1cc(CCCOc2ccc(-c3noc(C(F)(F)F)n3)cc2)on1` [Compound 11, N,N-dimethyl-5-(3-{4-[5-(trifluoromethyl)-1,2,4-oxadiazol-3-yl]phenoxy}propyl)isoxazole-3-carboxamide], the concentration for half-maximal inhibition (IC50) (Enterovirus B, HeLa, 48 h) came to 7000 nM.
Same read-out and setting: under `Cc1cc(-c2noc(C(F)(F)F)n2)cc(C)c1OCCCc1cc(C(=O)NCc2ccccc2)no1` [Compound 1, N-benzyl-5-(3-{2,6-dimethyl-4-[5-(trifluoromethyl)-1,2,4-oxadiazol-3-yl]phenoxy}propyl)isoxazole-3-carboxamide] stands 1400 nM.
For “Guanidine HCl [Gua- HCl, reference compound]”, the IC50 (HeLa cells, CPE inhibition, 48 hours, n.a. = not active) came out at 711000 nM.

(Values after patent publication US12583848B2, “Isoxazole-3-carboxamide derivatives and their use for treatment of diseases caused by virus infection” (Collaborations Pharmaceuticals, Inc., priority 2019, dated 2026).)
